Measured values published in PubChem BioAssay AID504845 (National Center for Advancing Translational Sciences (NCATS), 2011).
Out of some 390,000 compounds screened, about 150 (0.038%) were called active. Inconclusive means that the source gave no clear call. Such entries were picked first, then a sample of the others. Calls follow the shape of the dose curve; as a rule, active = well fitted inhibition curve with a large enough effect; inconclusive = small, poorly fitted or top-dose-only effect; inactive = no such curve, though single readings can be large or run the other way. A potency beside an inconclusive call is a rough fit, not a confirmed value.
% is scaled to controls: 0 for no effect and ±100 for the full control effect; potency is read from the fitted curve at half-maximal effect; tags tell the direction and shape of the fitted curve.
Also: nearly all actives have a fitted effect of over 75% in size.

The molecules below were run against Regulator of G-protein signaling 4 (Homo sapiens) (UniProt P49798) (assay: Inhibitors of Regulator of G Protein Signaling (RGS) 4: qHTS). Conditions: Transcreener GDP fluorescence polarization, RGS4-accelerated GTP hydrolysis; series mostly up to 114 µM; activity change, negative = inhibition: at the top concentration.
Sequence of UniProt P49798 (P49798 whole entry, looked up): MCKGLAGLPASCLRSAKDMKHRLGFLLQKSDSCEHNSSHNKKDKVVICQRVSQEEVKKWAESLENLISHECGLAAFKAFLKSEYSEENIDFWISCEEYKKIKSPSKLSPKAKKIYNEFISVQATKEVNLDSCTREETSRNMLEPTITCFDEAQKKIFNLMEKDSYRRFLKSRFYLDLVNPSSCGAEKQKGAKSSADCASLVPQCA
Outline: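 MLSMR compounds (23 nl, pin-transferred) preincubated 10 min at room temperature with a 500nM (2x) first reagent, then RGS4 at 900nM (2x) plus Transcreener GDP mix added; fluorescence polarization (620/688 nm) read before and after 90 min at 30 °C.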
`S=c1nc[nH]c2c1ncn2-c1ccc(Cl)cc1` was tested, and the Potency was inconclusive: 44.7 µM [inhibitor, partial curve, poor fit].
For `COc1ccc(N2CCN(C(=O)Cn3cnc4nc5c(cc4c3=O)CCCC5)CC2)cc1`, the “activity change, negative = inhibition” value was inactive: -27.4%.
In the case of `CN(CC(=O)Nc1ccc2c(c1)OCCO2)S(=O)(=O)c1ccc(F)cc1`, the “activity change, negative = inhibition” value is reported as inactive: -15.2%.
With `COCCn1c(SCC(=O)c2ccc3c(c2)OCCO3)nnc1C(C)C` the Potency was inconclusive: 79.4 µM [inhibitor, single point].
For `COc1ccc(NC(=O)CCNS(=O)(=O)c2cccc3nonc23)cc1`, the Potency was inconclusive: 89.1 µM [inhibitor, single point].
In the case of `COc1ccc(N(CC(=O)Nc2ccccc2OC)S(=O)(=O)c2ccc(NC(C)=O)cc2)cc1`, the “activity change, negative = inhibition” value is reported as inactive: -10.5%.
With `Cc1csc2c(N3CCCCC3)ncnc12` the “activity change, negative = inhibition” value was inactive: 18.4%.
`O=C(NCC(c1ccco1)N1CCCC1)c1ccc(Cl)c(S(=O)(=O)N2CCc3ccccc32)c1` (centres undefined) was tested, and the Potency was inconclusive: 89.1 µM [inhibitor, single point].
In the case of `COc1ccc2oc(=O)c(C(=O)NCc3ccc(F)cc3)cc2c1`, the “activity change, negative = inhibition” value is reported as inactive: -5.95%.
`COc1cc(/C=C/c2cc(C(F)(F)F)[nH]c(=O)n2)cc(OC)c1OC` was tested, and the “activity change, negative = inhibition” value was inactive: -19.4%.
`O=c1[nH]c(-c2ccccc2)nc(CN2CCCCC2)c1O` was tested, and the Potency was inconclusive: 100 µM [inhibitor, single point].
In the case of `Cc1cc(C(F)(F)F)n2nc(C(=O)O)c(Cl)c2n1`, the Potency is reported as inconclusive: 79.4 µM [inhibitor, single point].
In the case of `COc1ccc(NC(=O)Cn2cnc3sc(C)c(S(=O)(=O)N4CCN(C)CC4)c3c2=O)cc1OC`, the Potency is reported as inconclusive: 89.1 µM [inhibitor, single point].
With `CCOC(=O)c1cn(CC(=O)Nc2cccc(Cl)c2)nn1` the “activity change, negative = inhibition” value was inactive: 9.24%.
With `O=C(CSc1nnc(-c2cnccn2)n1Cc1ccco1)c1ccc(Cl)cc1` the Potency was inconclusive: 44.7 µM [inhibitor, partial curve, poor fit].
For `CCOC(=O)CC1COc2ccccc2N1C(=O)c1ccc(C)cc1` (centres undefined), the “activity change, negative = inhibition” value was inactive: -0.733%.
In the case of `Cn1c(=O)c2c(nc(SCCN3CCCCC3)n2Cc2ccc(Cl)cc2)n(C)c1=O`, the “activity change, negative = inhibition” value is reported as inactive: 18%.
In the case of `Nn1c(SCC(=O)Nc2ccccc2F)nc2ccccc2c1=O`, the “activity change, negative = inhibition” value is reported as inactive: 21%.
`Cc1cccc(C)c1NC(=O)CN1C(=O)S/C(=C\c2cccn2-c2cccc(C(=O)O)c2)C1=O` was tested, and the Potency was inconclusive: 56.2 µM [inhibitor, partial curve, poor fit].
With `CN(c1ccccc1)S(=O)(=O)c1ccc(C(=O)NNC(=O)c2ccccc2)cc1` the “activity change, negative = inhibition” value was inactive: -5.05%.
`CCC1CN(C(=O)N2CCC(C(=O)NCc3ccc(OC)cc3OC)CC2)c2cc(C)ccc2O1` (centres undefined) was tested, and the Potency was inconclusive: 89.1 µM [inhibitor, single point].
With `COc1ccc(/C=N/Nc2nccnc2Cl)c(OC)c1` the “activity change, negative = inhibition” value was inactive: -1.96%.
`COc1ccc(C(=S)Nc2ccc(C)cc2)cc1` was tested, and the Potency was inconclusive: 100 µM [inhibitor, partial curve, poor fit].
For `Cc1ccccc1NC(=O)c1ccc(CN2CCc3ccccc3C2)cc1`, the “activity change, negative = inhibition” value was inactive: 17.6%.
For `COc1ccc(C(=O)N/N=C/C(Br)=C/c2ccccc2)cc1`, the Potency was inconclusive: 79.4 µM [inhibitor, partial curve, poor fit].
In the case of `Cc1ccccc1NC(=O)CSC(=O)c1ccccc1`, the Potency is reported as inconclusive: 17.8 µM [inhibitor, full curve, poor fit].
In the case of `CCCN1CCC2(CC1)NC(C(=O)O)Cc1c2[nH]c2ccccc12` (centres undefined), the “activity change, negative = inhibition” value is reported as inactive: 2.44%.
With `Cc1ccc(S(=O)(=O)c2c(N)n(/N=C/c3ccco3)c3nc4ccccc4nc23)cc1` the Potency was inconclusive: 79.4 µM [inhibitor, partial curve, poor fit].
`N#C/C(=C/c1ccc(N2CCOCC2)o1)c1ccc(Br)cc1` was tested, and the Potency was inconclusive: 25.1 µM [inhibitor, full curve, poor fit].
For `Cc1[nH]c2ccccc2c1/C=N/Nc1nncn1N`, the Potency was inconclusive: 56.2 µM [inhibitor, partial curve, poor fit].
In the case of `Cc1ccc(CN(CC2CCCO2)C(=O)CN2C(=O)C(C(C)C)Oc3ccccc32)o1` (centres undefined), the Potency is reported as inconclusive: 79.4 µM [inhibitor, partial curve, poor fit].
With `CCCOc1cccc(-c2cc(C(=O)NNC(=S)NCC)c3ccccc3n2)c1` the Potency was inconclusive: 89.1 µM [inhibitor, partial curve, poor fit].
With `Cc1ccc(/C=N/NC(=O)Cn2nnc(N)n2)cc1` the “activity change, negative = inhibition” value was inactive: 0.261%.
For `Cc1cccc(/C=N/n2c(-c3ccccc3)n[nH]c2=S)c1O`, the Potency was inconclusive: 79.4 µM [inhibitor, single point].
In the case of `Cc1ccc2c(c1)c(-c1ccccc1)nc1nnnn12`, the Potency is reported as inconclusive: 50.1 µM [inhibitor, partial curve, poor fit].
With `Cc1oc(-c2ccc3c(c2)OCCO3)cc1C(=O)NC(Cc1ccccc1)C(=O)O` (centres undefined) the Potency was inconclusive: 79.4 µM [inhibitor, partial curve, poor fit].
For `CCOC(=O)c1sc(N)nc1C(F)(F)F`, the Potency was inconclusive: 50.1 µM [inhibitor, partial curve, poor fit].
In the case of `O=c1c2sccc2n(Cc2ccc(F)cc2)c(=O)n1-c1ccc(F)cc1`, the Potency is reported as inconclusive: 50.1 µM [inhibitor, partial curve, poor fit].
With `CCOc1ccccc1NC(=O)c1nc(S(=O)(=O)Cc2ccccc2)ncc1Cl` the Potency was inconclusive: 50.1 µM [inhibitor, partial curve, poor fit].
In the case of `Cc1cccc(C)c1NC(=O)CN1C(=O)S/C(=C\c2cccn2C)C1=O`, the “activity change, negative = inhibition” value is reported as inactive: 4.17%.
`O=C(N/N=C/c1cc([N+](=O)[O-])ccc1Cl)c1ccc2nc[nH]c2c1` was tested, and the Potency was inconclusive: 79.4 µM [inhibitor, partial curve, poor fit].
In the case of `COc1ccc(NC(=O)[C@@H](c2ccccc2)N2Cc3ccccc3C2=O)cc1OC`, the “activity change, negative = inhibition” value is reported as inactive: -14.5%.
In the case of `COCC(C)OC(=O)C(C#N)c1nc2ccccc2nc1N1CCN(Cc2ccccc2)CC1` (centres undefined), the Potency is reported as inconclusive: 89.1 µM [inhibitor, single point].
For `CC(NC(=O)COC(=O)c1ccc2ccccc2n1)C1CC2CCC1C2` (centres undefined), the Potency was inconclusive: 89.1 µM [inhibitor, partial curve, poor fit].
For `Cc1ccc(S(=O)(=O)c2c(N)n(Cc3ccco3)c3nc4ccccc4nc23)cc1`, the Potency was inconclusive: 70.8 µM [inhibitor, partial curve, poor fit].
For `COc1cccc(-c2cc(=O)c3ccccc3o2)c1N`, the Potency was inconclusive: 21.2 µM [inhibitor, single point].
For `CCOc1ccc(CC(=O)Nc2nnc3n2CCS3)cc1`, the “activity change, negative = inhibition” value was inactive: 19.3%.
For `CCCn1c(NCc2ccccc2NS(=O)(=O)c2ccc(C)cc2)nc2ccccc21`, the Potency was inconclusive: 89.1 µM [inhibitor, partial curve, poor fit].
For `Cc1cccc(-c2nc3ccccc3c(=O)n2NC(=S)N(C)C)c1`, the Potency was inconclusive: 11.2 µM [inhibitor, full curve, poor fit].
For `O=c1c(-c2ccco2)[n+]([O-])c2ccccc2n1OCc1ccccc1`, the Potency was inconclusive: 79.4 µM [inhibitor, partial curve, poor fit].
With `CCOC(=O)C1(CCc2ccccc2)CCN(Cc2nccn2CC)CC1` the “activity change, negative = inhibition” value was inactive: -20.5%.
`NC(=S)NN=C1c2ccccc2-c2c(F)c(F)c(F)c(F)c21` was tested, and the Potency was inconclusive: 100 µM [inhibitor, single point].
With `CC(Oc1ccccc1F)c1ccnc2nc(/N=C/N(C)C)nn12` (centres undefined) the Potency was inconclusive: 79.4 µM [inhibitor, partial curve, poor fit].
In the case of `Oc1c(I)cc(Cl)c2cccnc12`, the Potency is reported as inconclusive: 70.8 µM [inhibitor, partial curve, poor fit].
In the case of `CCN(C(=O)C1CCN(S(=O)(=O)c2ccc3c(c2)CCCN3C(=O)C2CCC2)CC1)c1cccc(C)c1`, the “activity change, negative = inhibition” value is reported as inactive: -10.9%.
In the case of `CSc1nccc(-c2nn(-c3ccc(C)cc3)ccc2=O)n1`, the Potency is reported as inconclusive: 50.1 µM [inhibitor, partial curve, poor fit].
`COc1cc2nc(NC(=O)c3ccc(F)cc3Cl)sc(=O)c2cc1OC` was tested, and the Potency was inconclusive: 17.8 µM [inhibitor, full curve, poor fit].
`COc1ccc(NC(=O)c2cc3ccccc3o2)cc1OC` was tested, and the Potency was inconclusive: 79.4 µM [inhibitor, partial curve, poor fit].
With `O=C(c1c(O)c2ccc(Cl)cc2[nH]c1=O)C1CC1` the Potency was inconclusive: 26.7 µM [inhibitor, partial curve, poor fit].
`O=Cc1ccc2oc3nc4n(c(=O)c3c(=O)c2c1)CCCS4` was tested, and the Potency was inconclusive: 79.4 µM [inhibitor, partial curve, poor fit].
For `O=C(O)c1ccccc1C(=O)NNc1ccc(Cl)cc1Cl`, the Potency was inconclusive: 89.1 µM [inhibitor, partial curve, poor fit].
With `Cc1ccc(C)c(N2CCN(C(=O)C3CCCN(S(=O)(=O)c4c(C)[nH]c(=O)[nH]c4=O)C3)CC2)c1` (centres undefined) the “activity change, negative = inhibition” value was inactive: 15.2%.
In the case of `Cc1occc1-c1nnc(-c2cc([N+](=O)[O-])cc([N+](=O)[O-])c2)o1`, the “activity change, negative = inhibition” value is reported as inactive: 9.6%.
`C/C(N)=C(/C#N)C(=O)CSc1ccccc1F` was tested, and the Potency was inconclusive: 50.1 µM [inhibitor, partial curve, poor fit].
In the case of `COC(=O)[C@H](C)N(Cc1ccc(Cl)c(Cl)c1)S(=O)(=O)CCN1CCN(c2ccccc2)CC1`, the “activity change, negative = inhibition” value is reported as inactive: -7.59%.
In the case of `CC(=O)N1N=C(c2ccc(Cl)cc2)CC1c1ccco1` (centres undefined), the “activity change, negative = inhibition” value is reported as inactive: 19.3%.
In the case of `COc1ccc2sc(-c3ccc(SC)cc3)c(C#CCO)c2c1`, the “activity change, negative = inhibition” value is reported as inactive: -24.5%.
In the case of `COc1cc(/C=N/NC(N)=S)cc(Br)c1OCc1ccccc1F`, the “activity change, negative = inhibition” value is reported as inactive: -13.2%.
With `Cc1ccc2nc(-c3ccc(NC(=O)c4ccco4)cc3)[nH]c2c1` the Potency was inconclusive: 31.6 µM [inhibitor, full curve, poor fit].
